According to PubChem BioAssay AID504832 (National Center for Advancing Translational Sciences (NCATS), 2011):
“And” between values parts separate entries of the source, which are not always exact repeats. Equal entries are not always repeated. In all, about 310,000 compounds went through this assay and about 18,000 (5.8%) were called active. This list was built around the results that the source calls inconclusive (neither active nor inactive); the mix of calls is not that of the screen. Calls come from the whole dose curve; as a rule, active = well fitted inhibition curve with a large enough effect; inconclusive = small, poorly fitted or top-dose-only effect, or another doubt; inactive = no such curve, though single readings can be large or run the other way. Potencies of inconclusive entries are left out as doubtful fits.

Test: Primary qHTS for delayed death inhibitors of the malarial parasite plastid, 48 hour incubation
Details: P. falciparum luciferase growth in erythrocytes; series mostly up to 28.7 µM; activity change, negative = inhibition: at the top concentration
Summary of the method: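 Read-out is firefly luciferase luminescence from an integrated reporter in P. falciparum, so falling signal marks reduced parasite growth. Infected erythrocytes were at 2% hematocrit and 0.1% parasitemia (final) in Albumax-supplemented RPMI 1640.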
% is set by controls: 0 for no effect and ±100 for the full control effect; potency is the fitted concentration of half-maximal effect; tags give direction and shape of the fitted curve.

| Structure (SMILES) | Potency | activity change, negative = inhibition |
| --- | --- | --- |
| C=C(c1ccccc1)c1ccccc1N | inconclusive [inhibitor, partial curve, poor fit] | – |
| COc1ccc(CC(=O)N(C)CC(=O)Nc2cccc(F)c2)cc1S(=O)(=O)N1CCOCC1 | – | inactive: 0.35% |
| O=C(Nc1ccc(Cl)cc1)N1CCc2ccccc2C1 | inconclusive [inhibitor, single point] | – |
| O=C(N/C(=C\c1cccc([N+](=O)[O-])c1)C(=O)N1CCOCC1)c1cccc(Br)c1 | inconclusive [inhibitor, partial curve, poor fit] | – |
| CN1CCN(c2nc(-c3ccccc3O)nc3ccccc23)CC1 | inconclusive [inhibitor, single point] | – |
| O=C(OCC(=O)N(C1CCCCC1)C1CCCCC1)c1ccccc1O | inconclusive [inhibitor, partial curve, poor fit] | – |
| Cc1ccc(COC(=O)c2cccc(S(=O)(=O)N3CCCCCC3)c2)cc1 | inconclusive [inhibitor, single point] | – |
| O=C(NCCOc1ccccc1F)c1cccc(S(=O)(=O)N2CCN(c3ccccc3)CC2)c1 | inconclusive [inhibitor, partial curve, poor fit] | – |
| COc1ccc(NC(=O)C2CCCN(S(=O)(=O)c3ccc(Cl)cc3)C2)cc1OC (stereo not given) | inconclusive [inhibitor, partial curve, poor fit] | – |
| Fc1cccc(Cl)c1Cn1nnc2c(NCc3ccccn3)ncnc21 | inconclusive [inhibitor, single point] | – |
| O=C(OCc1nnc(-c2ccccc2)o1)c1cc2ccccc2cc1O | inconclusive [inhibitor, single point] | – |
| Cc1ccc(S(=O)(=O)Nc2ncnc3sc(C)c(C)c23)cc1 | – | inactive: 0% |
| O=C1NC(=O)C2(CCc3ccccc32)N1 (stereo not given) | – | inactive: 13.8% |
| O=C(O)Cc1coc2cc3c(cc12)CCC3 | inconclusive [inhibitor, full curve, poor fit] | – |
| Cc1ccc(NC(=O)c2ccc(NCCCN3CCC(C)CC3)c([N+](=O)[O-])c2)c(C)c1 | active: 3.29 µM | – |
| CCOc1ccc(S(=O)(=O)N2CCN(C(=O)c3cc(S(=O)(=O)N4CCOCC4)ccc3C)CC2)cc1 | active: 8.28 µM | – |
| COc1ccc2cc(C(=O)NCc3ccco3)c(=Nc3ccc(C(=O)O)cc3)oc2c1 | active: 10.4 µM | – |
| Cc1[nH]c2ccccc2c1N=Nc1ccccc1C(=O)O | inconclusive [inhibitor, single point] | – |
| Cc1ccc(CN(C)C(=O)c2cc(Br)c(Br)s2)o1 | – | inactive: 3.16% |
| COc1ccccc1CCC(=O)Nc1ccc2c(c1)CN(Cc1ccc(C)o1)CC2 | inconclusive [inhibitor, partial curve] | – |
| CCn1c2nc(SCCN3CCOCC3)nnc2c2cc(C)cc(C)c21 | inconclusive [inhibitor, single point] | – |
| COc1ccc(NC(=O)CSC2CC(=O)N(c3ccc4c(c3)OCCO4)C2=O)cc1 (stereo not given) | – | inactive: 15.2% |
| Clc1ccc2c(N3CCNCC3)ccnc2c1 | inconclusive [inhibitor, single point] | – |
| Cn1c(=O)c2c(nc(SCCN3CCCCC3)n2Cc2ccc(Cl)cc2)n(C)c1=O | inconclusive [inhibitor, partial curve] | – |

| Structure (SMILES) | Potency | activity change, negative = inhibition |
| --- | --- | --- |
| COc1ccc(/C=C/C(=O)Nc2ccccc2C)cc1S(=O)(=O)N1CCOCC1 | inconclusive [inhibitor, single point] | – |
| COc1ccccc1NS(=O)(=O)c1cccc(C(=O)NN=C2CCCCCC2)c1 | – | inactive: -8.7% |
| O=S(=O)(Cc1ccc(Cl)cc1)N1CCCC1 | – | inactive: 4.67% |
| O=C(Nc1cccc(-n2cnnn2)c1)c1ccoc1COc1ccc(Cl)cc1 | inconclusive [inhibitor, single point] | – |
| O=C(CC1N=C2c3ccccc3N=C(SCc3ccccc3Cl)N2C1=O)NCc1ccco1 (stereo not given) | active: 4.65 µM | – |
| O=c1c(Cc2c(F)cccc2Cl)c(O)ccn1CCc1ccccn1 | – | inactive: -5.01% |
| CCOC(=O)CC1COc2ccccc2N1C(=O)c1ccc(C)cc1 (stereo not given) | – | inactive: -16.8% |
| CC(C)(C)C(=O)COC(=O)c1cccc(NC(=O)c2ccco2)c1 | – | inactive: 4.19% |
| O=C(CSc1nnc(-c2cnccn2)n1Cc1ccco1)c1ccc(Cl)cc1 | inconclusive [inhibitor, single point] | – |
| CCCSc1ccc([C@H]2N[C@@](C)(C(=O)OC)[C@H]3C(=O)N(C)C(=O)[C@@H]23)cc1OC | inconclusive [inhibitor, single point] | – |
| C[C@@]12C(=O)Nc3ccccc3C(=O)N1[C@H]1c3cc(Br)ccc3OC[C@@H]1[C@@H]2c1ccccc1 | inconclusive [inhibitor, single point] | – |
| O=C(c1ccc(S(=O)(=O)NCC2CCCO2)cc1)N1CCN(c2cccc(Cl)c2)CC1 (stereo not given) | – | inactive: -16.9% [at 5.75 µM] |
| Cc1ccc(NC(=O)CN(C)C(=O)Cc2ccc(Cl)cc2Cl)cc1 | inconclusive [inhibitor, partial curve, poor fit] | – |
| COC(=O)c1ccc(OC(=O)C2CSC3(C)CCC(=O)N23)cc1 (stereo not given) | inconclusive [inhibitor, partial curve, poor fit] | – |
| CCCCCc1cc(=O)oc2c(C(CCN3CCN(c4ccccc4)CC3)c3ccc(N(C)C)cc3)c(OC)cc(OC)c12 (stereo not given) | inconclusive [inhibitor, partial curve, poor fit] | – |
| Cc1ccccc1COc1cccc(/C=N/NC(=O)c2nnn(-c3nonc3N)c2C)c1 | inconclusive [inhibitor, single point] | – |
| Cc1nc(-c2ccc(F)cc2)c(CC(=O)N(C)CC(=O)Nc2c(C)cccc2C)s1 | inconclusive [inhibitor, partial curve, poor fit] | – |
| NC1=NC[C@H](Cc2ccc(O)cc2)N1CCCCC1CCCCC1 | active: 2.08 µM | – |
| O=C(c1cc2ccccc2o1)N1CCN(S(=O)(=O)/C=C/c2ccccc2)CC1 | – | inactive: -20% |
| COc1ccc(-c2cn(-c3ccccc3)c3[n+]2CCS3)cc1 | active: 2.33 µM and active: 928 nM | – |
| CC(=O)c1cccc(NC(=O)C(C)OC(=O)c2ccc3ncsc3c2)c1 (stereo not given) | inconclusive [inhibitor, single point] | – |
| CN(Cc1nc(-c2cccc(Cl)c2)no1)C1CCOCC1 | – | inactive: 200% |
| Cc1ccc(OCc2ccc(C(=O)NCc3cccnc3)cc2)cc1C | – | inactive: -0.701% |
| CC(=O)Nc1ccc(NC(=O)c2ccc(NS(=O)(=O)c3cccc4cccnc34)cc2)cc1 | inconclusive [inhibitor, partial curve, poor fit] | – |

| Structure (SMILES) | Potency | activity change, negative = inhibition |
| --- | --- | --- |
| CC(=O)c1ccc(NC(=O)C(C)N(C)CC(=O)Nc2ccc(N3CCOCC3)cc2)cc1 (stereo not given) | inconclusive [inhibitor, partial curve, poor fit] | – |
| COc1ccccc1CN1CC(C(=O)NCc2nccn2C)CCC1=O (stereo not given) | – | inactive: 6.25% |
| O=C(N/N=C/c1ccccn1)c1ccc(Cl)cc1 | active: 14.7 µM | – |
| OC[C@H](S)CS | active: 1.51 µM | – |
| O=C(NC1CCCC1)C(c1ccccn1)N(C(=O)c1csnn1)c1ccccc1F (stereo not given) | – | inactive: -1.23% |
| COc1cc(-c2noc(C)c2C#Cc2ccccn2)cc(OC)c1OC | – | inactive: 4.76% |
| COc1cc(C(=O)OCC(=O)N(CC(C)C)C2CCS(=O)(=O)C2)ccc1OCC(C)C (stereo not given) | inconclusive [inhibitor, partial curve] | – |
| Cc1oc2c(CN3CCCC3)c(O)ccc2c(=O)c1-c1ccc(Cl)cc1 | inconclusive [inhibitor, single point] | – |
| Cc1nc2ccccc2c(=O)n1-c1ccccc1C(F)(F)F | inconclusive [inhibitor, partial curve, poor fit] | – |
| CCOC(=O)C1C(C)N=C2SCC(=O)N2C1c1cccc(Br)c1 (stereo not given) | inconclusive [inhibitor, single point] | – |
| COc1cc(/C=C/c2cc(C(F)(F)F)[nH]c(=O)n2)cc(OC)c1OC | inconclusive [inhibitor, single point] | – |
| COc1cc(C2NC(=S)NC(C)=C2C(=O)Nc2ccc(C)cc2)ccc1O (stereo not given) | – | inactive: 70.5% |
| CCOCCCNC(=S)N1CCCN(c2nc3cc(C)cc(C)c3cc2C#N)CC1 | inconclusive [inhibitor, partial curve] | – |
| CCCCCn1c(CN2CCN(c3cccc(Cl)c3)CC2)nc2c1c(=O)[nH]c(=O)n2C | active: 13.1 µM | – |
| Cc1c(Cl)cnc(NC(=O)CSc2n[nH]c(N)n2)c1Cl | – | inactive: 1.94% |
| COc1ccc(NS(=O)(=O)c2cccc(NC(=O)c3ccccn3)c2)cc1 | inconclusive [inhibitor, single point] | – |
| CC(C)[C@H](NC(=O)N1CCn2c1nc1ccccc12)C(=O)N1CCCCC1 | inconclusive [inhibitor, single point] | – |
| O=C(/C=C/c1ccc(OCCCF)cc1)Nc1ccnc(-c2cccnc2)n1 | active: 10.4 µM | – |
| COc1ccnc(Oc2ccc(C)cc2)c1C#N | – | inactive: 98.5% |
| CCOc1ccc(N2C(=O)CN(c3cccc4ccccc34)C2=S)cc1 | inconclusive [inhibitor, full curve, poor fit] | – |
| CCCC(=O)C1=C(N2CCCCC2)CC(C)(C)C(C(=O)OC)C1=O (stereo not given) | – | inactive: 12.3% |
| COc1ccccc1C(=O)Nc1ccc(-c2nnn(CC(=O)N3CCOCC3)n2)cc1 | inconclusive [inhibitor, single point] | – |
